The source of these data is article PMC4336329 (PLoS ONE, 2015).

The campaign covered roughly 310,000 compounds. About 2,200 (0.71%) showed an effect of 50% or more. Effects have a minus sign here. Some of the results follow.

In this test the target is human ether-à-go-go-related gene (hERG) potassium channel (human, UniProt Q12809). The experiment in a line: primary screen, population patch clamp on CHO cells stably expressing hERG.
Sequence of human ether-à-go-go-related gene (hERG) potassium channel (Q12809 whole entry, looked up): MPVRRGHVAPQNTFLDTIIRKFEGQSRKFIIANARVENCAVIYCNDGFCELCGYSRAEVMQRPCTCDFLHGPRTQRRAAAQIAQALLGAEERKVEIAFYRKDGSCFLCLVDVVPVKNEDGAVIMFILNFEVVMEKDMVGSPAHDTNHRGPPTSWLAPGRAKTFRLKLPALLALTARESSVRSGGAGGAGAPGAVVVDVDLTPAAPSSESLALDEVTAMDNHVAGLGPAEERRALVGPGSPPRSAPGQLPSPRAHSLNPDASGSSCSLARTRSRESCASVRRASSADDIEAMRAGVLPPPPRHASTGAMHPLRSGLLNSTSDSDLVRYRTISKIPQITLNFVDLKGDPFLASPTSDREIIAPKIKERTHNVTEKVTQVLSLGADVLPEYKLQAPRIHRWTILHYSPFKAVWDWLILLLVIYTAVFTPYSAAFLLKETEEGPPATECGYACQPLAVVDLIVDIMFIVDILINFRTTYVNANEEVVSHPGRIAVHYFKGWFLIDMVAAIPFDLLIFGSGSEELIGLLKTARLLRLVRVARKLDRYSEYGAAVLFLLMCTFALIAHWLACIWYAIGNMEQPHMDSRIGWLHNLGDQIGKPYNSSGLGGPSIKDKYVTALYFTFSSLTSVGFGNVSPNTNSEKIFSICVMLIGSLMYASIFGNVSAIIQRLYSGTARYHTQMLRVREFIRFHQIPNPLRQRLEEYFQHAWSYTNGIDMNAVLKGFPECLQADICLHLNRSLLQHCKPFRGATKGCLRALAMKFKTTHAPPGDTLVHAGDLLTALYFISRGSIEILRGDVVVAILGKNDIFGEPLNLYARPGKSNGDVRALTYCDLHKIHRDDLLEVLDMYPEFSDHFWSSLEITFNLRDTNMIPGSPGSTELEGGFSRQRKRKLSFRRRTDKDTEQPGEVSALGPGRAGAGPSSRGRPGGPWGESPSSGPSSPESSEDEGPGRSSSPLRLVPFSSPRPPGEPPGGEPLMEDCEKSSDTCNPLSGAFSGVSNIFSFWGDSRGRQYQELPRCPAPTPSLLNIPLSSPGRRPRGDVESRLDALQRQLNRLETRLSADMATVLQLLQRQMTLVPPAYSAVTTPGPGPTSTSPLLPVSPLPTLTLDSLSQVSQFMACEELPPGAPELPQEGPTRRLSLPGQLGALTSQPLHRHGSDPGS
For the compound `COc1ccc(N(C(=O)c2cccnc2)S(=O)(=O)c2cccc([N+](=O)[O-])c2)cc1`, the “hERG current change (%, negative = inhibition) at 1uM” value is -2.12%.
Turning to `O=C1CCCC2=C1C(c1ccc(Cl)cc1)n1c(s/c(=C\c3ccc4ccncc4c3)c1=O)=N2` (stereo not shown), the “hERG current change (%, negative = inhibition) at 1uM” value is recorded as 6.62%.
With `O=C(O)c1ccc(-n2[nH]c3c(c2=O)CCCC3)cc1`, the “hERG current change (%, negative = inhibition) at 1uM” value came to 0.711%.
`CCOC(=O)C1CCN(C(c2cccc(F)c2)c2sc3nc(C)nn3c2O)CC1` (stereo not shown): the “hERG current change (%, negative = inhibition) at 1uM” value is on record as 8.11%.
Under `Cc1cc(NC(=O)CSCC(=O)N(C)Cc2ccc(Cl)c(Cl)c2)no1` stands 12.4%; under `CCOC(=O)C1=C(COc2ccccc2)NC(=O)NC1c1ccc2ccccc2c1` (stereo not shown), -7.86%; under `O=S(=O)(Cc1ccccc1)N1CCc2ccccc2C1`, 16.6%.
For the compound `Cc1ccc(NC(=O)OCc2cccs2)cc1`, the “hERG current change (%, negative = inhibition) at 1uM” value worked out at 15.6%.
For `S=C(Nc1ccc(Br)cc1Cl)N1CCCC1` the value was 14%; for `CN(CC(=O)NCCc1ccccc1)S(=O)(=O)c1cnc[nH]1`, 14.9%.
For `Cc1ccc([N+](=O)[O-])c(NC2OC(CO)C(O)C2O)c1` (stereo not shown) the value was 18.2%.
As for `COC(=O)c1sccc1-c1ccc(C(=O)Nc2cccnc2)o1`, the “hERG current change (%, negative = inhibition) at 1uM” value is 12%.
For `N/C(=N\OC(=O)c1ccc(Cl)cc1)c1ccccn1` the value was -0.428%.
Take `Nc1ccc(-c2nc3cc(N)ccc3s2)cc1`: the “hERG current change (%, negative = inhibition) at 1uM” value came out at 9.03%.
For `COC(=O)c1c(-c2ccc(F)cc2)csc1NC(=O)C1CCCO1` (stereo not shown) the value was 6.07%; for `Cc1sc2nc(SCC(=O)N3CC(C)OC(C)C3)n(C)c(=O)c2c1C` (stereo not shown), 6.02%.
Take `O=C(C1CCC(Cn2c(=S)[nH]c3ccccc3c2=O)CC1)N1CCOCC1` (stereo not shown): the “hERG current change (%, negative = inhibition) at 1uM” value is on record as 0.898%.
Under `N#C/C(=C\c1ccc(N2CCOCC2)o1)c1nc2ccccc2[nH]1` stands 1.65%; under `O=C(CCc1nnc(CCCCc2ccccc2)o1)NCCN1CCCCC1=O`, -2.88%.
Under `O=C(O)c1[nH]c2ccc(Br)cc2c1CCN1C(=O)c2cccc([N+](=O)[O-])c2C1=O` stands 10.7%; under `Cc1ccc(N2C(=N)/C(=C3/Nc4ccccc4S3)C(c3ccccc3)C2=O)cc1` (stereo not shown), 24.7%.
Under `O=C(CSCC(=O)Nc1cccc([N+](=O)[O-])c1)Nc1ccccc1` stands 13.1%; under `CNc1nc2c(C)cccn2c(=O)c1C=NCc1ccccc1`, 20%; under `COc1ccc(N2CCOCC2)c(NC(=O)c2ccc3c(c2)OCO3)c1`, 12.4%.
On to `CC1(C)CC(=O)C2=C(C1)OC(N)=C(C#N)C2c1cc2c(cc1[N+](=O)[O-])OCO2` (stereo not shown), for which the “hERG current change (%, negative = inhibition) at 1uM” value was determined as 5.63%.
For `CC1CCN(c2ccc3nnc(CCC(=O)Nc4cc(F)ccc4F)n3n2)CC1` the value was 3.13%; for `COc1cc2c(cc1OC)C(c1ccccc1)N(C(=O)c1ccccc1)CC2` (stereo not shown), 11.4%.
As to `COc1ccc(OC)c(NC(=O)C(=O)NCc2ccncc2)c1`, the “hERG current change (%, negative = inhibition) at 1uM” value is -8.5%.
As for `O=S(=O)(N1CCCCC1)N1CCN(c2ccc(F)cc2)CC1`, the “hERG current change (%, negative = inhibition) at 1uM” value is reported as -0.452%.
`COc1ccccc1CN1CCNC(=O)C1CC(=O)NCCOc1cccnc1` (stereo not shown): the “hERG current change (%, negative = inhibition) at 1uM” value turned out to be 7.59%.
For `Cc1nn(Cc2c(Cl)cccc2Cl)c(C)c1NC(=O)c1cn(-c2ccccc2)nc1-c1ccccc1` the value was 6.15%; for `Nc1c(C(=O)c2ccccc2)sc2nsc(SCCN3CCCC3)c12`, 10%.
Regarding `CN(C)c1ccc(CNc2ccc3c(c2)ncn3C(C)(C)C)cc1`, the “hERG current change (%, negative = inhibition) at 1uM” value is given as 10.3%.
For `COc1ccc(NC(=O)CCCn2nc(C)c3c(C)n(-c4ccccc4)nc3c2=O)cc1OC` the value was 12.8%; for `CC1CC(C)CN(CCCNC(=O)c2c(O)nc3ccccn3c2=O)C1` (stereo not shown), 13.8%.
For `COC(=O)c1c(C(=O)NCc2ccccc2)ncn1CC(O)COc1ccccc1` (stereo not shown) the value was 5.97%; for `COc1ccc(CCNC(=O)Cn2nnc(-c3ccc(N4CCOCC4)cc3)n2)cc1OC`, 3.01%.
Under `COCCNC(=O)C(c1ccc(C)o1)N(Cc1ccc(F)cc1)C(=O)Cn1nnc2ccccc21` (stereo not shown) stands 1.57%; under `COc1ccc(CCNC(=O)Cc2cccs2)cc1OC`, 25.5%; under `COc1ccc(C(CCN2CCCC(C)C2)c2c(OC)cc(OC)c3c2OC(=O)CC3c2cc(OC)c(OC)c(OC)c2)cc1` (stereo not shown), 11.9%.
With `Cc1ccc(OCC(=O)N2CCCC(N3CCN(c4ccc(F)cc4)CC3)C2)cc1` (stereo not shown), the “hERG current change (%, negative = inhibition) at 1uM” value is given as -90.2%.
Under `Cc1ccc(-c2nnc(CCC(=O)N(C)Cc3nccs3)o2)s1` stands 5.2%; under `CCCN(CC(=O)Nc1ccc(F)c(F)c1F)C(=O)c1ccc(N2CCCC2=O)cc1`, 12.5%.
As for `CCCCn1c(=O)c(CCC(=O)OCC(=O)Nc2cccc3ccccc23)nc2ccccc21`, the “hERG current change (%, negative = inhibition) at 1uM” value is recorded as 17.2%.
For `O=C(Nc1cnc2sccn2c1=O)c1ccc(Cl)cc1Cl` the value was 16.9%.
For the compound `CC(C)c1c(C(=O)N/N=C/c2ccncc2)nnn1-c1nonc1N`, the “hERG current change (%, negative = inhibition) at 1uM” value was -5.28%.
For `O=C(C[n+]1ccccc1)N/N=C/c1ccccc1F.[Cl-]`, the “hERG current change (%, negative = inhibition) at 1uM” value is recorded as 8.59%.
Turning to `Cc1nnc(SCC(=O)N2CCN(c3ccccc3)CC2)n(N)c1=O`, the “hERG current change (%, negative = inhibition) at 1uM” value came to 10.7%.
Turning to `CCOCCn1c(CN(Cc2ccccc2)Cc2ccccc2)nc2c1c(=O)n(C)c(=O)n2C`, the “hERG current change (%, negative = inhibition) at 1uM” value stood at 4.46%.
Consider `Cc1nc2nc(C)c(CCC(=O)NCCC3=CCCCC3)c(C)n2n1`, for which the “hERG current change (%, negative = inhibition) at 1uM” value was 11.6%.
Consider `O=C(Oc1ccccc1N1C(=O)C2CCCCC2C1=O)c1ccccc1` (stereo not shown), for which the “hERG current change (%, negative = inhibition) at 1uM” value was 23.6%.
Under `O=C(NCC1CCCO1)c1cc2ccccc2nc1Cl` (stereo not shown) stands 12.5%; under `CN1CCN(Cc2cccc3ncccc23)CC1CCO` (stereo not shown), 13.5%.
`Cc1cccc(-n2c(-c3csc(C)c3)n[nH]c2=S)c1`: the “hERG current change (%, negative = inhibition) at 1uM” value stood at 11.8%.
Consider `Cc1cc(NC(=O)C2C3C(=O)N(Cc4ccc(Cl)cc4)C(C(=O)NC4CCCCC4)C34C=CC2(C)O4)no1` (stereo not shown), for which the “hERG current change (%, negative = inhibition) at 1uM” value is 15.3%.
